Out of some 310,000 compounds screened, about 2,200 (0.71%) showed an effect of 50% or more. The effect is printed as a negative number. This is one part of the list.
target: human ether-à-go-go-related gene (hERG) potassium channel (human, UniProt Q12809); experiment: primary screen, population patch clamp on CHO cells stably expressing hERG
Sequence (Q12809 whole entry, looked up): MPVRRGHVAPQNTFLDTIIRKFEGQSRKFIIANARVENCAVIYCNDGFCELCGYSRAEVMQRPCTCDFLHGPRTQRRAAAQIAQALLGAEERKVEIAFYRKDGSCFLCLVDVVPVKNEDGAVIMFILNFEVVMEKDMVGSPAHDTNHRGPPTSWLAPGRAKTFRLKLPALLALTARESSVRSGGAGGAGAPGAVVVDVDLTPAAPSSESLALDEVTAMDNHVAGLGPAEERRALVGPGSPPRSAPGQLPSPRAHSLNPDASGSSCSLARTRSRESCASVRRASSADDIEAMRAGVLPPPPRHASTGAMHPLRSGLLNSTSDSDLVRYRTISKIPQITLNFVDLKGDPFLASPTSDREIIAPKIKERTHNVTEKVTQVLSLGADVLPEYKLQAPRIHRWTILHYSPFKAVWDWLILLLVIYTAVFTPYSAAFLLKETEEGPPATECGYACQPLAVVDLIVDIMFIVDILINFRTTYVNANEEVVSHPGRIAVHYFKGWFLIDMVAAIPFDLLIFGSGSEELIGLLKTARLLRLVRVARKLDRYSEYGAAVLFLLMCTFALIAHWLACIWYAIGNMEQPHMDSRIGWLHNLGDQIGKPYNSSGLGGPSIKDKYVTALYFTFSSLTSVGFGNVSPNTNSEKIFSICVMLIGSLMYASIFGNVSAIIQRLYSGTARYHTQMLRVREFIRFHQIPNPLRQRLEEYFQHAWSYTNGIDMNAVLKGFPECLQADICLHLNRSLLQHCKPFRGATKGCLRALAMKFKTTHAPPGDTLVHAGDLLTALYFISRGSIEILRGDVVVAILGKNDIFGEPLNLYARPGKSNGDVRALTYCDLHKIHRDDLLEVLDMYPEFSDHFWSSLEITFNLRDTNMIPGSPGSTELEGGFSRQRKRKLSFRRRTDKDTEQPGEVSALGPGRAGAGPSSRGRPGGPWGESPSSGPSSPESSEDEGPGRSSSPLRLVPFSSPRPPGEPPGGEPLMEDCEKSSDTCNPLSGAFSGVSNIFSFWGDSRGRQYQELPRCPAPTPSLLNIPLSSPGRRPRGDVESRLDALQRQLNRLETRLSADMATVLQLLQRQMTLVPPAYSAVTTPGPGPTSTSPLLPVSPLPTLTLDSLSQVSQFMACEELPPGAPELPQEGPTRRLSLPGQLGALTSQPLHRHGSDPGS

SMILES	hERG current change (%, negative = inhibition) at 1uM
Cc1ccc(S(=O)(=O)/N=C2\C=C(Nc3cccc(C(=O)O)c3)C(=O)c3ccccc32)cc1	13.8%
Cc1cc(C(=O)CSc2ccc3c(c2)OCCO3)c(C)n1C1CC1	3.4%
O=C(/C=C/c1ccc(Cl)cc1)Nc1ccc(N2CCOCC2)cc1	1.08%
CCOC(=O)c1cc2oc(C)cc2n1CC(=O)OC1CCCCC1	4.59%
CSc1nc(N(C)C)c2ccccc2n1	-6.21%
CCOc1ccc(C2C=C(c3ccccc3)Nc3ncnn32)cc1 (stereo not drawn)	2.83%
Cc1cc(C)cc(NC(=O)CSc2nc3c(c(=O)n2C)SC(C)C3)c1 (stereo not drawn)	10.2%
O=C(NCc1cccc(Cl)c1)NC(=O)c1csc([N+](=O)[O-])c1	11.9%
CCC(Sc1nc(C)cc(=O)[nH]1)C(=O)Nc1nc2c(s1)CCCC2 (stereo not drawn)	4.71%
CCOC(=O)N1CCC(NC(=O)c2cccn3c(=O)c4cc(Br)ccc4nc23)CC1	10.4%
CCOC(=O)/C(=N/Nc1ccc(OC)cc1)Sc1nnc(CCc2ccccc2)n1-c1ccccc1	13%
Cc1nc(SCC(=O)NCc2ccco2)nc(C)c1C	5.57%
CC1Cc2ccccc2N1C(=O)COC(=O)CCc1nc2ccccc2c(=O)[nH]1 (stereo not drawn)	-4.35%
O=C(NC(=O)c1ccccc1)Nc1ccc(-c2cnco2)cc1	16%
Cn1c(C(=O)NCCC2=CCCCC2)cc2c(=O)n3ccccc3nc21	15.1%
CCN(CC(=O)NCc1ccc(Cl)cc1)C(=O)/C=C/c1ccco1	-2.84%
COc1ccc(CCNC(=O)CCCN2C(=O)c3ccccc3C2=O)cc1	12.8%
COc1ccc(CNC(=O)C2CCN(C(=O)N(C)C)CC2)c(OC)c1	-0.878%
Cc1nc2ccccn2c1C(=O)N=Nc1c(O)[nH]c2ccccc12	13.2%
CCCCOc1ccc(NC(=S)Nc2cc(C)nc(SCCCC)n2)cc1	16.1%
CCOC(=O)C1=C(C)N(c2ccccc2)C(=O)C1	8.2%
CC1(c2ccccc2)NC(=O)N(CC(=O)NCCC2=CCCCC2)C1=O (stereo not drawn)	18.4%
COc1ccc(N2CC(C(=O)Nc3ccc(S(=O)(=O)N4CCCCC4)cc3)CC2=O)cc1 (stereo not drawn)	16%

SMILES	hERG current change (%, negative = inhibition) at 1uM
O=C(c1cccnc1)N1CCN(c2c(Cl)cccc2[N+](=O)[O-])CC1	-17.9%
O=c1c[n+]([O-])c2ccccc2n1OCc1ccccn1	20.9%
COc1ccc(C2=NOC(C(=O)NCc3ccccc3)C2)cc1 (stereo not drawn)	3.71%
CCn1nnnc1SCC(=O)Nc1nc2ccccc2s1	19.6%
CCCCOc1ccc(NS(=O)(=O)c2ccc(-n3cnnn3)cc2)cc1	1.67%
CC(C)(C)Cc1nc(-c2ccc(Cl)cc2)no1	9.77%
CCN(C(=O)c1ccc2c(=O)n3c(nc2c1)CCCCC3)c1ccc(F)cc1	9.73%
CCCCNC(=O)C1(O)c2ccccc2NC(=O)N1c1ccc(Cl)cc1 (stereo not drawn)	15.7%
CCOc1ccc(/C=N/NC(=O)C(O)c2ccccc2)c(O)c1 (stereo not drawn)	15.3%
CCOCCn1c(CN2CCc3ccccc3C2)nc2c1c(=O)n(C)c(=O)n2C	6.8%
Cc1ccc(OCc2ccc(C(=O)Nc3ccc(C(N)=O)cc3)o2)c([N+](=O)[O-])c1	3.6%
CC1CCCCC1NC(=O)CSc1nnc(N)s1 (stereo not drawn)	-18.4%
COc1ccc(C(=O)C2CCCN(C3CSCCSC3)C2)cc1OC (stereo not drawn)	3.17%
COc1ccc(/C=C2\CCn3c2nc2cc(C(=O)O)ccc2c3=O)cc1O	4.31%
O=C(NCc1ccccc1)C1(C(F)(F)F)C/C(=C/CCO)CCCO1 (stereo not drawn)	9.59%
CS(=O)(=O)N(CC(=O)Nc1ccccc1C(=O)N1CCCC1)c1cccc([N+](=O)[O-])c1	7.35%
COc1ccc2c(c1)C(NS(=O)(=O)OCC(Cl)(Cl)Cl)CCC2 (stereo not drawn)	4.09%
CCOc1ccc(NCCC#N)cc1	-6.96%
O=c1[nH]c(NCc2ccccc2)nc2c1CCC2	11.2%
COCCCn1c(=O)c2sccc2n2c(CCCC(=O)N3CCN(c4ccccn4)CC3)nnc12	10.9%
COc1cc(NS(=O)(=O)N2CCCC2)cc(OC)c1OC	10.6%
Nc1nnc(SCCN2C(=O)c3ccccc3S2(=O)=O)s1	6.7%

Reference: article PMC4336329 (PLoS ONE, 2015)
